Assay results published in the supplement of paper PMC6609913.
Counter-ions that a name gives are not always drawn. ± gives the standard deviation of the averaged measurements. Over roughly 1,300 compounds, “normalised cell viability” has its median near 1; the lowest 2% begin near 0.15. The list shows a part of the results.

Tested on: V-C8 + BRCA2 (BRCA2-proficient hamster cells)
Assay: normalised cell viability (fraction of plate median); higher = more viable cells (less toxic)
Settings: 5 µM
How it was run: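 Hamster V-C8 cells lacking BRCA2 and V-C8 cells with BRCA2 restored were seeded in 96-well plates. Library drugs (10 mM DMSO stocks) were added 24 h later at 5 μM in 100 μl medium, next to DMSO control wells, for 3 days (screen 1) or 6 days (screen 2). Cell viability was read by resazurin assay, median-plate normalised (modified robust per cent of sample), and triplicate wells were averaged.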

| Structure (SMILES) | normalised cell viability (treatment time: 3 days) | normalised cell viability (treatment time: 6 days) |
| --- | --- | --- |
| Fc1ccc(C(OCCN2CCN(CCCc3ccccc3)CC2)c2ccc(F)cc2)cc1 | 0.18 ± 0.0028 | 0.191 ± 0.0064 |
| COc1ccc(CCN2CCC(Nc3nc4ccccc4n3Cc3ccc(F)cc3)CC2)cc1 [Astemizole] | 0.118 ± 0.0065 | 0.102 ± 0.0063 |
| CC(=O)O[C@H]1C[C@H](O[C@H]2[C@@H](O)C[C@H](O[C@H]3[C@@H](O)C[C@H](O[C@H]4CC[C@@]5(C)[C@H](CC[C@@H]6[C@@H]5C[C@@H](O)[C@]5(C)[C@@H](C7=CC(=O)OC7)CC[C@]65O)C4)O[C@@H]3C)O[C@@H]2C)O[C@H](C)[C@H]1O[C@@H]1O[C@H](CO)[C@@H](O)[C@H](O)[C@H]1O [Lanatoside C] | 1.13 ± 0.13 | 0.854 ± 0.077 |
| Oc1cc(Cl)ccc1Oc1ccc(Cl)cc1Cl [Triclosan] | 0.941 ± 0.07 | 1.07 ± 0.028 |
| C[N+]1([O-])[C@@H]2C[C@@H](OC(=O)[C@H](CO)c3ccccc3)C[C@H]1[C@@H]1O[C@@H]12 (stereo partly specified) [Scopolamin-N-oxide hydrobromide] | 0.94 ± 0.04 | 1 ± 0.057 |
| C[C@]12N[C@H](Cc3ccccc31)c1ccccc12 [Dizocilpine maleate] | 1.06 ± 0.074 | 1.11 ± 0.13 |
| CCN(CC)C(C)C(=O)c1ccccc1 (stereo unspecified) [Amfepramone hydrochloride] | 1.17 ± 0.066 | 1.11 ± 0.056 |
| O[C@@H]1CCCC[C@H]1N1CCC(c2ccccc2)CC1 [L(-)-vesamicol hydrochloride] | 1.04 ± 0.061 | 1.03 ± 0.073 |
| C[C@]12CC[C@@H]3c4ccc(OC(=O)N(CCCl)CCCl)cc4CC[C@H]3[C@@H]1CC[C@@H]2O [Estramustine] | 0.225 ± 0.0075 | 0.243 ± 0.029 |
| O=[N+]([O-])c1cc([As](=O)(O)O)ccc1O [Roxarsone] | 1.01 ± 0.034 | 0.879 ± 0.17 |
| CCC1(c2ccc(N)cc2)CCC(=O)NC1=O (stereo unspecified) [Glutethimide, para-amino] | 0.996 ± 0.046 | 0.935 ± 0.022 |
| CC[C@@]1([C@@H]2O[C@@H]([C@H]3O[C@@](O)(CO)[C@H](C)C[C@@H]3C)C[C@@H]2C)CC[C@H]([C@]2(C)CC[C@]3(C[C@H](O)[C@@H](C)[C@@H]([C@@H](C)[C@@H](OC)[C@H](C)C(=O)O)O3)O2)O1 [Monensin sodium salt] | 0.219 ± 0.0038 | 0.175 ± 0.011 |
| CCN(C)C(=O)Oc1cccc([C@H](C)N(C)C)c1 [Rivastigmine] | 1.06 ± 0.085 | 0.714 ± 0.49 |
| CN(C)C(=O)Oc1cc(OC(=O)N(C)C)cc(C(O)CNC(C)(C)C)c1 (stereo unspecified) [Bambuterol hydrochloride] | 1.04 ± 0.011 | 1.04 ± 0.066 |
| CCn1cc(C(=O)O)c(=O)c2cc3c(cc21)OCO3 [Oxolinic acid] | 0.983 ± 0.026 | 1.01 ± 0.033 |
| C[C@]12CC[C@H](O)C[C@@H]1CC[C@@H]1[C@@H]2CC[C@]2(C)C(=O)CC[C@@H]12 [Epiandrosterone] | 1 ± 0.066 | 0.984 ± 0.023 |
| NCC(O)c1ccc(O)cc1 (racemic) [(+,-)-Octopamine hydrochloride] | 1.04 ± 0.05 | 0.947 ± 0.038 |
| CN1[C@@H]2CC[C@H]1C[C@@H](OC1c3ccccc3CCc3ccccc31)C2 [Deptropine citrate] | 0.931 ± 0.016 | 0.869 ± 0.065 |
| CCCC(C)(COC(N)=O)COC(=O)NC(C)C (stereo unspecified) [Carisoprodol] | 0.992 ± 0.042 | 1.09 ± 0.04 |
| CCC1(C)CC(=O)NC(=O)C1 [Bemegride] | 0.959 ± 0.073 | 0.969 ± 0.068 |

| Structure (SMILES) | normalised cell viability (treatment time: 3 days) | normalised cell viability (treatment time: 6 days) |
| --- | --- | --- |
| C[N+]1(C)CCCC(OC(=O)C(O)(c2ccccc2)c2ccccc2)C1 (stereo unspecified) [Mepenzolate bromide] | 1 ± 0.038 | 1.05 ± 0.032 |
| OC(c1ccccc1)(c1ccccc1)C1CCNCC1 [Azacyclonol] | 0.985 ± 0.041 | 1.03 ± 0.042 |
| NC(=O)OCCCc1ccccc1 [Phenprobamate] | 1 ± 0.086 | 1.06 ± 0.035 |
| C=CCC1(CC(C)C)C(=O)NC(=O)NC1=O [Butalbital] | 1.14 ± 0.098 | 1.04 ± 0.062 |
| O=C(CCCN1CCC(n2c(=O)[nH]c3ccccc32)CC1)c1ccc(F)cc1 [Benperidol] | 1.012 ± 0.0052 | 1.04 ± 0.024 |
| C[C@@H]1CN([C@H]2CC[C@](C#N)(c3ccc(F)cc3)CC2)CC[C@]1(C(=O)O)c1ccccc1 [Levocabastine hydrochloride] | 1.05 ± 0.013 | 1.05 ± 0.042 |
| COc1ccc(OC)c(C(O)C(C)N)c1 (stereo unspecified) [Methoxamine hydrochloride] | 1.01 ± 0.02 | 0.995 ± 0.044 |
| CCC(=O)O[C@H]1CC[C@H]2[C@@H]3CCC4=CC(=O)CC[C@]4(C)[C@H]3CC[C@]12C [Testosterone propionate] | 0.906 ± 0.085 | 1 ± 0.1 |
| C[C@]12COC(=O)C[C@@H]1CC[C@@H]1[C@@H]2CC[C@@]2(C)[C@H]1CC[C@]2(C)O [Oxandrolone] | 1.1 ± 0.067 | 1.08 ± 0.043 |
| O=P1(N(CCCl)CCCl)NCCCO1 (stereo unspecified) [Cyclophosphamide] | 1.07 ± 0.025 | 1.01 ± 0.027 |
| CN1C(=O)CCS(=O)(=O)C1c1ccc(Cl)cc1 (stereo unspecified) [Chlormezanone] | 1.2 ± 0.17 | 1.03 ± 0.012 |
| C[C@]12C/C(=C/O)C(=O)C[C@@H]1CC[C@@H]1[C@@H]2CC[C@@]2(C)[C@H]1CC[C@]2(C)O [Oxymetholone] | 1.1 ± 0.033 | 1.01 ± 0.049 |
| CC(=O)[C@H]1CC[C@H]2[C@@H]3CC[C@H]4C[C@H](O)CC[C@]4(C)[C@H]3C(=O)C[C@]12C [Alfaxalone] | 1.07 ± 0.031 | 1.03 ± 0.051 |
| C=C1C[C@@H]2[C@H](CC[C@]3(C)C(=O)CC[C@@H]23)[C@@]2(C)C=CC(=O)C=C12 [Exemestane] | 0.972 ± 0.11 | 0.975 ± 0.044 |
| COc1ccc(C(CN(C)C)C2(O)CCCCC2)cc1 (stereo unspecified) [Venlafaxine] | 1.01 ± 0.061 | 0.755 ± 0.023 |
| CNC(=O)Oc1ccc2c(c1)[C@]1(C)CCN(C)[C@@H]1N2C [Eserine sulfate, physostigmine sulfate] | 0.891 ± 0.018 | 0.91948 ± 0.00047 |
| CN(C)C(=O)Oc1cccc([N+](C)(C)C)c1 [Neostigmine bromide] | 1.15 ± 0.06 | 1.03 ± 0.075 |
| CC(C)(N)Cc1ccccc1 [Phentermine hydrochloride] | 1 ± 0.041 | 0.995 ± 0.023 |
| CCNCC(O)c1cccc(O)c1 (stereo unspecified) [Etilefrine hydrochloride] | 0.953 ± 0.077 | 1.01 ± 0.036 |
| CCC1=C[C@H]2CN3CCc4c([nH]c5ccccc45)[C@](C(=O)OC)(C2)[C@H]13 [Catharanthine] | 0.992 ± 0.023 | 1.03 ± 0.059 |

| Structure (SMILES) | normalised cell viability (treatment time: 3 days) | normalised cell viability (treatment time: 6 days) |
| --- | --- | --- |
| CC(C)C[C@H]1C(=O)N2CCC[C@H]2[C@]2(O)O[C@](NC(=O)[C@@H]3C=C4c5cccc6[nH]c(Br)c(c56)C[C@H]4N(C)C3)(C(C)C)C(=O)N12 [Bromocryptine mesylate] | 0.854 ± 0.021 | 0.862 ± 0.054 |
| CN1[C@@H]2CC[C@H]1C[C@@H](OC(=O)C(CO)c1ccccc1)C2 (stereo partly specified) [Atropine sulfate monohydrate] | 0.925 ± 0.033 | 0.988 ± 0.053 |
| CNC(C)(C)Cc1ccccc1 [Mephentermine hemisulfate] | 0.958 ± 0.013 | 0.937 ± 0.06 |
| C[C@]12CCC(=O)C(O)=C1CC[C@@H]1[C@@H]2CC[C@]2(C)C(=O)CC[C@@H]12 [Formestane] | 1.033 ± 0.0053 | 1.03 ± 0.064 |
| NCCCNCCSP(=O)(O)O [Amifostine] | 1.03 ± 0.045 | 0.999 ± 0.085 |
| CC1OC(OC2/C=C/C=C/C=C/C=C/CC/C=C/C=C/[C@H](C)[C@@H](O)[C@@H](C)[C@H](C)OC(=O)CC(O)CC(O)CC(O)CCC(O)C(O)C[C@]3(O)CC(O)C(C(=O)O)C(C2)O3)C(O)C(N)C1O (stereo partly specified) [Nystatine] | 1.02 ± 0.064 | 0.954 ± 0.047 |
| NCCC(O)C(=O)NC1CC(N)C(OC2OC(CN)C(O)[C@H](O)[C@@H]2N)[C@H](OC2O[C@H](CO)[C@@H](O)[C@@H]2O)[C@@H]1O (stereo partly specified) [Butirosin disulfate salt] | 0.979 ± 0.026 | 0.868 ± 0.3 |
| O=c1[nH]c2ccccc2n1C1CCN(CCCC(c2ccc(F)cc2)c2ccc(F)cc2)CC1 [Pimozide] | 0.754 ± 0.051 | 0.765 ± 0.043 |
| C#CCN(C)[C@H](C)Cc1ccccc1 [Selegiline hydrochloride] | 1.07 ± 0.062 | 1.06 ± 0.077 |
| C[C@@H]1O[C@@H](O[C@@H]2C=C3CC[C@@H]4[C@H](CC[C@]5(C)[C@@H](c6ccc(=O)oc6)CC[C@]45O)[C@@]3(C)CC2)[C@H](O)[C@H](O)[C@H]1O [Proscillaridin A] | 0.978 ± 0.013 | 1.02 ± 0.11 |
| C[C@]12CC[C@@H](O)C[C@H]1CC[C@@H]1[C@@H]2CC[C@]2(C)C(=O)CC[C@@H]12 [3-alpha-Hydroxy-5-beta-androstan-17-one] | 1.03 ± 0.037 | 1 ± 0.028 |
| CN1[C@@H]2C[C@@H](OC(=O)[C@H](CO)c3ccccc3)C[C@H]1[C@@H]1O[C@@H]12 [Scopolamine hydrochloride] | 0.982 ± 0.13 | 0.993 ± 0.032 |
| C#C[C@]1(O)CC[C@H]2[C@@H]3CCC4=CC(=O)CCC4=C3C=C[C@@]21CC [Gestrinone] | 1.14 ± 0.24 | 1.03 ± 0.039 |
| N[C@@H]1C[C@H]1c1ccccc1 [Tranylcypromine hydrochloride] | 0.9796 ± 0.0062 | 0.946 ± 0.022 |
| NCC(CC(=O)O)c1ccc(Cl)cc1 (racemic) [Baclofen (R,S)] | 0.897 ± 0.079 | 0.956 ± 0.083 |
| CN[C@@H]1[C@@H](O)[C@@H](O[C@@H]2[C@@H](O)[C@H](O[C@H]3O[C@H](CN)CC[C@H]3N)[C@@H](N)C[C@H]2N)OC[C@]1(C)O.CN[C@@H]1[C@@H](O)[C@@H](O[C@@H]2[C@@H](O)[C@H](O[C@H]3O[C@H]([C@@H](C)N)CC[C@H]3N)[C@@H](N)C[C@H]2N)OC[C@]1(C)O.CN[C@@H]1[C@@H](O)[C@@H](O[C@@H]2[C@@H](O)[C@H](O[C@H]3O[C@H]([C@@H](C)NC)CC[C@H]3N)[C@@H](N)C[C@H]2N)OC[C@]1(C)O [Gentamicine sulfate] | 0.891 ± 0.023 | 0.944 ± 0.062 |
| O=C1CC[C@@]2(O)[C@H]3Cc4ccc(O)c5c4[C@@]2(CCN3CC2CC2)[C@H]1O5 [Naltrexone hydrochloride dihydrate] | 1.19 ± 0.059 | 1.09 ± 0.065 |
| CN1CCC2(C)c3cc(O)ccc3N(C)C12 (single isomer, unassigned; (-)) [(-)-Eseroline fumarate salt] | 0.694 ± 0.028 | 0.769 ± 0.015 |
